The campaign covered roughly 50,000 compounds. About 800 (1.6%) showed an effect of 50% or more. The list shows a part of the results.
The compounds below were run against Bcl-2-like protein 10 (Homo sapiens) (UniProt Q9HD36) (assay: TR3 peptide-Bcl-B binding displacers, biochemical primary FP assay, phenotype converters (AID 1240;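 also: 0% = Bcl-B with tracer peptide and DMSO and 100% = tracer peptide lacking Bcl-B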)). Conditions: GST-Bcl-B / FITC-TR3 peptide fluorescence polarization; stronger effect = higher value; compound at 3.75 mg/L.
Chain of UniProt Q9HD36 (Q9HD36 whole entry, looked up): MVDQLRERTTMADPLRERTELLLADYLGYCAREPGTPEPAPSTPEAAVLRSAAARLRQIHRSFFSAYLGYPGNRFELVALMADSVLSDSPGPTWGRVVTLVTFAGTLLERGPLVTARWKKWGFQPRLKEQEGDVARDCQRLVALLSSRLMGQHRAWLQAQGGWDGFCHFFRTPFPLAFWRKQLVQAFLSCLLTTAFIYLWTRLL
For `COc1ccccc1NC(=O)NCc1ccccn1`, the displacement was -2.3%.
`CCCNC(=O)C(F)(F)C(F)(F)C(=O)NCCC` was tested, and the displacement was -3.9%.
Compound `O=C(/C=C/c1cc2c(cc1Br)OCO2)c1ccc(Cl)cc1` has a displacement of 10.2%.
`CCN(CC)c1ccc(C=Nc2ccc(Sc3ccc([N+](=O)[O-])cc3)cc2)cc1` gave a displacement of 4.8%.
With `COC(=O)c1ccccc1NC(=O)c1ccc(CN2CCN(c3ccccc3)CC2)cc1` the displacement was 23.3%.
`C=CCOC(=O)C1=C(C)NC(=O)NC1c1cccc(Oc2ccccc2)c1` (stereo unspecified) showed a displacement of -2.1%.
Compound `CCc1ccc(S(=O)(=O)Nc2ccc([N+](=O)[O-])c3ccccc23)cc1` has a displacement of -9.4%.
Compound `Cc1ccc(S(=O)(=O)NC(C)(C)CNC(c2ccccc2)c2ccccc2)cc1` has a displacement of -5.7%.
`C=CCNC(=O)CN(c1cccc(Br)c1)S(=O)(=O)c1ccccc1` showed a displacement of 0.2%.
Work on `CC(C)c1ccccc1OCCCN1CCOCC1` yielded a displacement of -6%.
`Cc1cc(C)c(C#N)c(SCC(=O)Nc2cccc(C)c2C)n1` was tested, and the displacement was -6%.
`CCC(=O)N1c2ccc(OC)cc2C(=C2SC(C(=O)OC)=C(C(=O)OC)S2)C(=S)C1(C)C` gave a displacement of 6.7%.
For `O=C(c1cccc(Cl)c1)N1CCN(Cc2ccccc2[N+](=O)[O-])CC1`, the displacement was 10.9%.
Compound `O=c1c([N+](=O)[O-])c(N2CCCCCC2)c2ccccc2n1-c1ccccc1` has a displacement of -13.4%.
`CC(C)CC(NC(=O)/C(=C\c1ccc2c(c1)OCO2)NC(=O)c1ccco1)C(=O)O` (stereo unspecified) was tested, and the displacement was -1.7%.
Work on `CC1=C(C(=O)Nc2cc(Cl)ccc2C)C(c2ccccc2Br)NC(=S)N1` (stereo unspecified) yielded a displacement of -8.3%.
`O=C(Nc1ccccc1)Nc1nnc(C23CC4CC(CC(C4)C2)C3)s1` gave a displacement of 17.6%.
Work on `O=[N+]([O-])c1cc(Br)ccc1C1CC1` yielded a displacement of -6%.
In the case of `Cc1cccc(CN2CCN(Cc3ccncc3)CC2)c1`, the displacement is reported as -1.1%.
Work on `Cc1cccc(NC(=O)C(=O)NCCO)c1C` yielded a displacement of 6.1%.
`C=CCOc1ccccc1C=C1C(=O)NC(=O)NC1=O` showed a displacement of 10.1%.
`O=C(Nc1ccc(C2CCCCC2)cc1)C1=C(O)CCn2c1nc1ccccc12` gave a displacement of -0.7%.
`COc1ccc(/C=C2\C(=O)N(c3ccc(F)cc3)N=C2C)c(OC)c1` gave a displacement of 12.9%.
With `CCOC(=O)c1c(C)nc2n(/N=C/c3ccc([N+](=O)[O-])cc3)c3ccccc3n12` the displacement was 4.9%.
Work on `COc1ccc(/C=C2\SC(N3CCC(C)CC3)=NC2=O)cc1OC` yielded a displacement of -16.2%.
`Cc1ccc(Nc2cc(N3CCOCC3)c3noc4c3c2C(=O)c2ccccc2-4)cc1` was tested, and the displacement was 5.8%.
Work on `O=C(NC(=S)N1CCOCC1)c1cccs1` yielded a displacement of -0.6%.
Work on `COc1cccc(NC(=O)COc2ccc3ccccc3c2)c1` yielded a displacement of 0%.
With `Cc1ccc(N2C(=O)CC(N3CCN(c4ccc([N+](=O)[O-])cc4)CC3)C2=O)cc1` (stereo unspecified) the displacement was 1.2%.
Work on `Cc1cccc(N2C(=O)C(=O)/C(=C(\O)c3ccccc3)C2c2cccc([N+](=O)[O-])c2)c1` (stereo unspecified) yielded a displacement of 9.5%.
Work on `COc1ccc(C2C(C(=O)Nc3ccccc3)=C(C)N=C3SCC(=O)N32)cc1` (stereo unspecified) yielded a displacement of -15.9%.
With `O=C(c1ccc(F)cc1)N1CCN(Cc2ccccc2Cl)CC1` the displacement was 2.1%.
In the case of `CCOC(=O)N1CCN(c2ccccc2)CC1`, the displacement is reported as -1.5%.
Work on `CCOc1ccc(N2C(=O)CC(N3CCC(C(N)=O)CC3)C2=O)cc1` (stereo unspecified) yielded a displacement of 8.1%.
`Nc1ccc(Cl)cc1-n1nc(-c2ccc(F)cc2)c2ccccc2c1=O` gave a displacement of 12.6%.
Work on `CCCCCC(=O)N/N=C/c1cccnc1` yielded a displacement of -2.1%.
Compound `Cc1ccc(S(=O)(=O)Oc2ccccc2/C=C2/SC(=S)N(Cc3ccccc3)C2=O)cc1` has a displacement of 17.1%.
`COc1cccc(-c2nc3sc4c(c3c(=O)[nH]2)CCCC4)c1` showed a displacement of 1.3%.
In the case of `CC(=O)Nc1ccc(OC(=O)c2cccc([N+](=O)[O-])c2)cc1`, the displacement is reported as -7.7%.
With `C/C(=N\NS(C)(=O)=O)c1ccccc1` the displacement was 6.7%.
Work on `O=[N+]([O-])c1cc2c(cc1C=Nc1ccc(F)cc1)OCO2` yielded a displacement of 6.7%.
Work on `O=C(NCC1CCCO1)c1c(Cl)cccc1Cl` (stereo unspecified) yielded a displacement of 10.5%.
`CC(C)(C)C(=O)/C=C(/c1ccccc1)N1CCCCC1` showed a displacement of -8%.
In the case of `CCN(CC)c1ccc(N=Cc2ccc(OC)c3ccccc23)cc1`, the displacement is reported as -0.5%.
`CC(=C\C(=O)O)/C(=C\CC(C)CCCC(C)C)C(=O)O` (stereo unspecified) showed a displacement of -11.3%.
With `O=S(=O)(c1ccccc1)N1CCSC1c1ccc(Br)cc1` (stereo unspecified) the displacement was -0.2%.
Work on `CSc1nc(O)c(Cc2ccccc2)c(=O)n1-c1ccccc1` yielded a displacement of -9.8%.
`COc1ccc(S(=O)(=O)N2CCN(Cc3ccc(Br)cc3)CC2)cc1` gave a displacement of -4.1%.
Work on `O=C1C2C3C=CC(C3)C2C(=O)N1/N=C/c1ccc(I)o1` (stereo unspecified) yielded a displacement of 7.3%.
Compound `Cc1cc(C)cc(N(CC(=O)NC2CC3CCC2C3)S(=O)(=O)c2ccccc2)c1` (stereo unspecified) has a displacement of 6.2%.
Work on `Cc1cccc(N=C2NC(=O)/C(=C\c3ccc(Br)cc3)S2)c1C` yielded a displacement of -4.5%.
`CCCCN(CCCC)C(=O)CSc1nc2sc(C)c(C)c2c(=O)[nH]1` was tested, and the displacement was 10%.
With `COc1ccc(C(=O)Oc2ccc(/C=C3\SC(N)=NC3=O)cc2)cc1` the displacement was 10.1%.
Compound `COC(=O)C1=NNC2(C)C(=O)N(c3ccccc3C)C(=O)C12` (stereo unspecified) has a displacement of 1.4%.
Work on `CC(C)N(CC#CC(O)(c1ccccc1)c1ccccc1)C(C)C` yielded a displacement of 6.5%.
`O=S(=O)(Nc1ccc(O)c2ccccc12)c1ccc(F)cc1` was tested, and the displacement was 12.2%.
In the case of `CC(=O)N(c1ccccc1)C1C=CS(=O)(=O)C1` (stereo unspecified), the displacement is reported as 0.5%.
`O=C(NCc1cccnc1)c1cccc(F)c1` gave a displacement of 6.9%.
`CC1=C(C(=O)OCCCc2ccccc2)C(c2ccc(Cl)c(Cl)c2)CC(=O)N1` (stereo unspecified) was tested, and the displacement was -1.9%.
In the case of `CCOC(=O)c1sc(NC(=O)c2cc(Cl)ccc2[N+](=O)[O-])c(C(=O)OCC)c1C`, the displacement is reported as 1%.
`Cc1sc(NC(=O)C2CC3CCC2C3)c(C(N)=O)c1C` (stereo unspecified) was tested, and the displacement was 3.3%.
With `COc1ccc(N(CC(=O)Nc2ccc(OC)cc2OC)S(=O)(=O)c2ccc(C)cc2)cc1` the displacement was 1.4%.
`Cc1cc(C)c(OCCCCN2CCCC2)c(Cl)c1` gave a displacement of 13.9%.
For `CCCS(=O)(=O)c1c(S(=O)(=O)CCC)c2cc(-c3ccncc3)ccn2c1C(=O)c1ccc(F)cc1`, the displacement was 3.2%.
In the case of `O=C1N/C(=N/N=C/c2ccccc2)SC1Cc1cc(Cl)ccc1Cl` (stereo unspecified), the displacement is reported as 28.6%.
With `COc1cc(NC(=O)c2cnn3c(C(F)(F)F)cc(-c4ccco4)nc23)c(OC)cc1Cl` the displacement was 1%.
Compound `COc1cc(/C=C2/SC(=S)N(CCC(=O)Nc3ccc4c(c3)OCO4)C2=O)cc(OC)c1OC` has a displacement of 16.6%.
`CC1=C(C(=O)OCCc2ccccc2)C(c2c(F)cccc2Cl)CC(=O)N1` (stereo unspecified) was tested, and the displacement was -4.5%.
For `COc1ccc(C2C(C(=O)OCc3ccccc3)=C(C)NC3=C2C(=O)CCC3)c(OC)c1` (stereo unspecified), the displacement was -2.2%.
`COc1cc(OC)c(C2NC(=S)NC(C)=C2C(=O)Nc2ccccc2)cc1OC` (stereo unspecified) gave a displacement of 6.8%.
With `O=C1CC(c2ccccc2)CC(O)=C1C=NC1CCCC1` (stereo unspecified) the displacement was -5.4%.
`Cc1cc2nc(-c3cccc(NC(=O)c4ccccc4F)c3)oc2cc1C` showed a displacement of 14.4%.
Compound `O=C(c1ccncc1)N1CCN(Cc2ccccn2)CC1` has a displacement of -2.5%.
`CC1=NN(c2ccccc2)C(=O)C1C=C1C(=O)c2ccccc2C1=O` (stereo unspecified) showed a displacement of -1.3%.
`CCCCCCCNC1CC(=O)N(c2ccc(Cl)cc2)C1=O` (stereo unspecified) showed a displacement of -4.1%.
With `Cc1nnc(C)n1/N=C/c1ccccc1O` the displacement was -19%.
In the case of `CC1=C(C(=O)OC2CCCCCC2)C(c2cccc(F)c2)C2=C(CCCC2=O)N1` (stereo unspecified), the displacement is reported as -2.7%.
In the case of `O=C(CSc1nc2ccccc2[nH]1)N/N=C/c1cccc(Cl)c1Cl`, the displacement is reported as -5.4%.
`CN1C(=O)/C(=C\c2cccc(OCc3cccc4ccccc34)c2)SC1=S` gave a displacement of 8.7%.
Compound `COc1ccc(C2CC(C(F)(F)F)n3nc(C(N)=O)c(Cl)c3N2)cc1OC` (stereo unspecified) has a displacement of 4.1%.
`Cc1ccc(-c2nc3ccccc3o2)cc1NC(=O)c1ccc(-c2ccc([N+](=O)[O-])cc2)o1` gave a displacement of 28.3%.
Work on `CC1(C)CC(=O)C(C(C2=C(O)CC(C)(C)CC2=O)c2ccc(Cl)cc2Cl)C(=O)C1` (stereo unspecified) yielded a displacement of -1.9%.
With `COc1ccc(C2(CNCC(O)COc3ccccc3)CCCC2)cc1OC` (stereo unspecified) the displacement was -14.7%.
Compound `COc1ccc(N(CC(=O)NCc2ccccc2)S(=O)(=O)c2ccc(C)c([N+](=O)[O-])c2)cc1` has a displacement of 10.1%.
`Cc1ccc(C(=O)CCNc2ccc(C)c(C)c2)o1` showed a displacement of 6.8%.
`C/C(=C1/C(=O)N(c2nc3ccccc3s2)N=C1CSc1ccc(Cl)cc1)N1CCOCC1` gave a displacement of -22.3%.
Work on `CC(=O)C1=C(C)NC(=O)NC1c1ccccc1OCc1ccccc1` (stereo unspecified) yielded a displacement of 0.1%.
With `COc1cccc2cc(C(=O)Nc3ccc(C(C)=O)cc3)c(=O)oc12` the displacement was 16%.
Work on `Cc1ccc(N2NC(=O)/C(=C/c3ccc(N4CCOCC4)cc3)C2=O)cc1C` yielded a displacement of 13.3%.
`O=C1/C(=C/c2ccc(O)c(O)c2)SC(=S)N1c1ccc(O)cc1` gave a displacement of -12.9%.
With `CCOc1ccc2nc(NC(=O)c3ccc(OCC(C)C)cc3)sc2c1` the displacement was 4%.
`COc1ccc(OC)c(N2C(=O)CC(Sc3nc4ccccc4s3)C2=O)c1` (stereo unspecified) showed a displacement of 1.7%.
`CCOc1ccc(C(=O)Nc2cc(-c3nc4ncccc4o3)ccc2C)cc1[N+](=O)[O-]` was tested, and the displacement was 4.5%.
`CCOC(=O)C(CNC(=O)c1ccccc1)(Oc1ccc(Cl)cc1)C(=O)OCC` gave a displacement of 15.4%.
With `COc1cc(C(=O)NC(NC(=S)Nc2cc(Cl)ccc2Cl)C(Cl)(Cl)Cl)cc(OC)c1OC` (stereo unspecified) the displacement was 12.1%.
Work on `COc1ccc(C(=O)Nc2ccc(-c3nc4cc(C)ccc4o3)cc2)cc1Br` yielded a displacement of -5%.
For `O=C(Nc1nc2ccc(Cl)cc2s1)c1ccc(Br)cc1`, the displacement was -3.6%.
Compound `COc1ccc(NS(=O)(=O)c2ccc(Cl)cc2)cc1Cl` has a displacement of -1.1%.
`COc1ccc(C(NC(=O)Cc2ccccc2)c2c(OC(C)=O)ccc3ccccc23)cc1OC` (stereo unspecified) was tested, and the displacement was -16.2%.
Work on `COc1ccc(CN2CCN(Cc3cc(Br)ccc3O)CC2)c(OC)c1` yielded a displacement of 1.4%.
Work on `CC(C)(C)c1cc(CN2CCN(CCN)CC2)cc(C(C)(C)C)c1O` yielded a displacement of 5.5%.
`CCCCc1c(C)nc(N/N=C/c2ccc(OC)cc2OC)[nH]c1=O` was tested, and the displacement was -1.9%.
For `Cc1cc(Cl)ccc1NC(=O)COc1cc(C)c(Cl)c(C)c1`, the displacement was 5.8%.
In the case of `COc1cc(C2/C(=C(\O)c3ccc([N+](=O)[O-])cc3)C(=O)C(=O)N2CCCCCC(=O)O)ccc1O` (stereo unspecified), the displacement is reported as -7.1%.
`O=C(/C=C/c1ccc(S(=O)(=O)Nc2ccccc2)cc1)C1C(=O)c2ccccc2C1=O` was tested, and the displacement was 31.1%.
For `C=CCN1C(=O)/C(=C\c2ccc(-c3cc(Cl)ccc3Cl)o2)SC1=S`, the displacement was 65.4%.

Reference: PubChem BioAssay AID1240 (Sanford-Burnham Center for Chemical Genomics, 2008)
